In PubChem BioAssay AID488969 (Vanderbilt High Throughput Screening Facility, 2010):
The full ranking holds about 110,000 compounds; the median of “z-score” is about -0.1, and the highest 2% start at about 2. The list shows a part of the results.

The molecules below were run against Metabotropic glutamate receptor 8 (Rattus norvegicus) (UniProt P70579) (assay: mGluR8 Gi/Go-coupled signaling modulation – cell-based, rat, thallium flux, HTS, primary screen (AID 488969)). Conditions: HEK293 rat mGluR8, GIRK (G protein-gated inwardly rectifying potassium channel) thallium flux, FluoZin2; at 10 µM; stronger effect = higher value; submaximal glutamate (EC20) added with thallium.
Sequence of UniProt P70579 (P70579 whole entry, looked up): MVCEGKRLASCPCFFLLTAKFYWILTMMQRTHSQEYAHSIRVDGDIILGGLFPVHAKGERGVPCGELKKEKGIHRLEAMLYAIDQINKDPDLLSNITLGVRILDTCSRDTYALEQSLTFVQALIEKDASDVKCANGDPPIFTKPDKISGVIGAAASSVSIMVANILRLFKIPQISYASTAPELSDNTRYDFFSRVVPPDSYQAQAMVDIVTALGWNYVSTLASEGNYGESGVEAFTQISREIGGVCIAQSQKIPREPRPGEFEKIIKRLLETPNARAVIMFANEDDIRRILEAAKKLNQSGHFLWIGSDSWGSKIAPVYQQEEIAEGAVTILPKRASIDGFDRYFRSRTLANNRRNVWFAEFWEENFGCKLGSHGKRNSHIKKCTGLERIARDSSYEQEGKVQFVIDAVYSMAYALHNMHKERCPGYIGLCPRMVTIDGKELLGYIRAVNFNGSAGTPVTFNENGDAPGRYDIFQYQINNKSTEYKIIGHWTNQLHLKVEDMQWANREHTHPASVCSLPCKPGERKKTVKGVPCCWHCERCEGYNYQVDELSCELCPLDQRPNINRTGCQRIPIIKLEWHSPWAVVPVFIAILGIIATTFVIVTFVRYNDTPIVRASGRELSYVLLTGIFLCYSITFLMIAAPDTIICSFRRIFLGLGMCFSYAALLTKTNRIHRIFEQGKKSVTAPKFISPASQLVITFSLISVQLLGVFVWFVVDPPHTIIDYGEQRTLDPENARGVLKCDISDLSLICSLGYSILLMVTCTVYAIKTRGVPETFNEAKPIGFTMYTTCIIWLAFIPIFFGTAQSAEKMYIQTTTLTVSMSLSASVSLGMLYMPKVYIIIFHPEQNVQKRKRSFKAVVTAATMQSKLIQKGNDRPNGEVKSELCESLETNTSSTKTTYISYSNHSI

Structure (SMILES)	z-score
CCCCn1c(CCC)nc([N+](=O)[O-])c1Sc1ccc(Cl)cn1	-0.603
CC1CN(Cc2nc3c(c(=O)n(C)c(=O)n3C)n2CCc2ccccc2)CC(C)O1 (centres undefined)	-0.121
O=C(CSCc1cccc(CSCC(=O)Nc2ccc3ccccc3c2)n1)Nc1ccc2ccccc2c1	0.244
Cc1cccc(N(NC(=O)C(C)(C)O)C(=O)c2ccccc2)c1	-0.167
COC(=O)C1=CN(C(C)C)C=C(C(=O)OC)C1c1cccc(OC)c1	0.115
O=C(Nc1ccc(C(F)(F)F)cc1)C1CC(=O)N(c2ccc3c(c2)OCCO3)C1 (centres undefined)	-0.396
O=C(CCN1C(=O)c2ccccc2C1=O)Nc1sc2c(c1C(=O)NCc1ccco1)CCCC2	-0.456
CSc1nccn1CC(=O)Nc1ccc(F)cc1	0.0448
COc1cc(C(=O)Nc2nc(-c3cc(C)ccc3C)c(C)s2)ccc1OCC(=O)Nc1ccc(F)cc1	0.361
Cc1cc(/C=C(/C#N)c2cccc(Cl)c2)c(C)n1C	-0.21
CCN=C1SC(CC(=O)Nc2sc3c(c2C#N)CCCC3)C(=O)N1CC (centres undefined)	-0.517
Cc1ccc(OCC(=O)N(Cc2ccccc2)C2CCS(=O)(=O)C2)c([N+](=O)[O-])n1 (centres undefined)	-0.163
O=C(Nc1ccc2oc(-c3ccccc3Cl)nc2c1)c1cncc(Br)c1	-0.624
Cc1nc2cc(NC(=O)N3CCC(c4ccccc4)C3)ccc2n1C (centres undefined)	-0.227
CC(C)(C)NC(=O)c1cccc(NC(=O)Cc2ccc(Br)cc2)c1	-0.512
CCOC(=O)c1cnc(SC)nc1Oc1cccc(NC(=O)c2ccc(Cl)cc2)c1	-0.164
C#CCn1cc(/C=N/NC(=O)COc2cccc3cccnc23)c2ccccc21	-0.0614
CC(C)Oc1cccc(C(=O)NC(=S)Nc2ccc(Cl)c(C(=O)O)c2)c1	-0.562
CCOC(=O)C(C)(C)N(Cc1cccc(C)c1)S(=O)(=O)c1ccc(Cl)c([N+](=O)[O-])c1	-0.206
N#Cc1cc2c(nc1SCC(=O)Nc1sc3c(c1C#N)CCC3)CCCCC2	-0.373
COc1cccc(C(=O)Nc2nnc(-c3cccs3)s2)c1	0.914
COC(=O)c1ccc(N=NNc2cccc(Br)c2)cc1	-0.315
Cc1ccc(-c2nnc(N3CCN(C(=O)CN4C(=O)c5ccccc5C4=O)CC3)c3ccccc23)cc1	-0.137
Clc1ccc(CSc2nnc(-c3sccc3-n3cccc3)o2)cc1	-0.0075
CCS(=O)(=O)NC(C)C(c1cccs1)N1CCN(c2ccc(F)cc2)CC1 (centres undefined)	0.062
COc1ccccc1-n1c(SCC(=O)NC(C)(C)C)nnc1-c1ccco1	0.0608
Cc1cc(-c2ccccc2)nc(N2CCC(C(=O)NC34CC5CC(CC(C5)C3)C4)CC2)n1	-0.0703

Structure (SMILES)	z-score
COC(=O)c1c(NC(=O)C2CC=CCC2C(=O)O)sc(C)c1C (centres undefined)	0.85
S=C(NC1CCCCC1)c1ccc2c(c1)OCO2	-0.0677
O=S(=O)(c1ccccc1)c1nc(-c2ccco2)oc1NCCCN1CCOCC1	-0.319
CCC(=O)c1ccc(N2CCN(C(=O)Cc3ccccc3)CC2)c(F)c1	-0.255
CSc1ccc(S(=O)(=O)NCCOc2ccccc2C)cc1	-0.0297
CCc1ccc(OCc2nc(-c3ccccn3)no2)c(Br)c1	0.404
O=c1c(F)cn(C2CCCO2)c(=O)n1Cc1c(Cl)cccc1Cl (centres undefined)	-0.131
CCN(CC)C(=O)N1CCN(S(=O)(=O)c2ccc(C)cc2)CC1	-0.103
COc1cc(C(=O)N2CCN(c3ccc([N+](=O)[O-])cc3)CC2)ccc1OCc1c(C)noc1C	-1.12
O=C(CSc1nnc(CNc2ccccc2)o1)N1CCc2ccccc21	-0.0854
CC1CCCCC1NC(=O)COC(=O)c1ccccn1 (centres undefined)	-0.0412
CC(C)(C)NC(=O)Cn1nnnc1-c1nonc1N	0.603
CCOC(=O)C1CCCN(Cc2cc(Br)c(OC)cc2OC)C1 (centres undefined)	-0.00798
CCOc1ccc2nc(C(=O)N3CCCC(C)C3)sc2c1 (centres undefined)	-0.253
O=C(COC(=O)c1ccccn1)Nc1nccs1	-0.313
O=C(NNc1cccc(Cl)n1)Nc1ccc(Cl)cc1	0.0783
Cc1ccc(N(C(C)C(=O)Nc2ccccc2C(=O)N2CCOCC2)S(C)(=O)=O)cc1C (centres undefined)	0.699
O=C(N1CCOCC1)N(CCN1CCOCC1)Cc1cccc2ccccc12	0.0182
Cc1ccc(S(=O)(=O)NCCc2ccncc2)cc1	-0.472
c1csc(-c2nc3c4ccccc4c4ccccc4c3[nH]2)c1	0.232
CCN(CC)CCCNC(=O)c1nn(-c2cccc(OC)c2)c(=O)c2ccccc12	-0.854
CCc1ccc(OCC(=O)NC(NC(=S)Nc2ccccc2OC)C(Cl)(Cl)Cl)cc1 (centres undefined)	-0.163
O=c1cc(NCC2CCCO2)[nH]c(=O)n1-c1ccc(Cl)cc1 (centres undefined)	-0.29
NCC(O)COc1ccc2c(c1)OCO2 (centres undefined)	-0.185
Cc1ccc(OCC(=O)N/N=C/c2ccco2)cc1	-0.143
COCCNC(=O)C(c1ccc(C)o1)N(C(=O)c1snc(C(N)=O)c1N)c1ccc(C)cc1 (centres undefined)	-0.867
Cc1ccc(NC(=O)N2CCC(NC(=O)C(C)(C)C)CC2)cc1	-0.173
